# Measurements as given in the supplement of paper PMC11417369.
# ± gives the standard deviation of the averaged measurements. The list shows a part of the results.
# Tested on: PfAP2-EXP AP2 domain (GST-tagged)
# Assay: gcPBM binding intensity (ln(normalized median fluorescence intensity)); higher = stronger DNA binding
# Method in brief: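 GST-fused DNA-binding domains of P. falciparum, expressed in E. coli, were applied at about 25 μg on average for 1 h to an Agilent 4 × 180k array of primer-extended double-stranded 36-bp intergenic genomic probes and negative controls. Binding intensity is the highest Masliner-normalised natural-log median intensity across replicate spots of either probe orientation, measured with Alexa488 anti-GST antibody and a 488 nm scan.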
row,Sequence,gcPBM binding intensity (ln)
1,GGTTAAAAAAAGCATACACACTATCCTCTTTGCTCT [CACACA_site7246],8.65 ± 0.37
2,ATATTTTACAAATGCACACATAATTTTTTTTTTTTT [CACACA_site2763],8.59 ± 0.15
3,GAACCTTTAAAATACACACCCAAATCCTTTGAAATA [CACACA_site3630],8.34 ± 0.47
4,TACATAAATACATACATACACACATATATATATATA [CACACA_site2105],10 ± 0.34
5,TTTTTTTTTATATATACACACAATAAATAAATATAA [CACACA_site2954],8.34 ± 0.45
6,TAACTTTATTTTCCTGTACACACATTTGACATATTA [CACACA_site9116],8.94 ± 0.49
7,TCAAATTACGTAAGAACATGCGATATAAGAAATACG [TGCATGCA_site691],9.09 ± 0.4
8,CTCTAATTAATATTTGTACACACATATTTAACCTAC [CACACA_site9043],8.67 ± 0.3
9,TATATATTAATCAAAGTGCAATAATAAAATAAAAGT [GTGCAC_site9490],9.18 ± 0.29
10,AGCAGACACCAACACACACACATATATATATATATA [CACACA_site337],10.1 ± 0.38
11,TTTATACAAAAGAACAGTACAATAAAGGATTTATGA [XGTACX_site811],8.53 ± 0.29
12,CATATTCCCCCCCACACACACACACGCATACATACC [CACACA_site7148],11.1 ± 0.19
13,TAAATAAAATACAAATGTACATAAATAATAAATATA [XGTACX_site1813],8.76 ± 0.41
14,ATATAAAAAATATAAGGTACACATATATGTAGATAT [XGTACX_site6792],8.93 ± 0.42
15,AATTATTTTAAATATTGTACTATTACAGAATGGTGT [XGTACX_site5693],8.79 ± 0.43
16,CTTGGGAAGTATTCAGTGCAAAATATAAGCAGGTCA [GTGCAC_site9758],9.09 ± 0.36
17,TATATTATCAAAATGGTGCAATAATTTCTATATTAT [GTGCAC_site9772],8.46 ± 0.26
18,AAAAGAAATAAGGATACACACTATTGATAAAAGTAG [CACACA_site4309],8.79 ± 0.41
19,TATTACAAATAATACCGTACACAAATGTTTTTTTAT [XGTACX_site7977],8.4 ± 0.42
20,TCGTGGGAAAATATTACACACATTTACTATAGTATC [CACACA_site5836],8.48 ± 0.41
21,ATATATATATTGAAAAGTACATATATATATATATTA [XGTACX_site1560],9.13 ± 0.071
22,TGGATAATCAAAAATTGTACAAGTGTTGTTATTGGT [XGTACX_site8010],8.69 ± 0.37

row,Sequence,gcPBM binding intensity (ln)
1,ACCGGTGGAACGTTTTGTACATATATAATAATATAT [XGTACX_site2143],8.62 ± 0.5
2,TAGGTAAATGCAAATTGGTTTAAATCAAAATATAAA [XGTACX_negctrl_site250],8.5 ± 0.62
3,TTTATTATTTTAACGTGTACAAGGTATATAATATTC [XGTACX_site5241],8.57 ± 0.2
4,TGATATTATATATATACACACATGTATGTATTTATA [CACACA_site4874],8.32 ± 0.42
5,GTATCAAAAGAATACACACACACATACAGATATATA [CACACA_site5975],8.61 ± 0.67
6,ATAAACAAACATAAATCTGATTTTAATTTTTTTAAG [CACACA_negctrl_site313],7.88 ± 0.44
7,TTATATTTTCTCCGCGTGCACATATGTATACTATAC,9.34 ± 0.23
8,TTTTTGTTTTTTTGTTTATCGTTCGTGACTACATGA [TGCATGCA_negctrl_site124],8.74 ± 0.51
9,GAAATCTAAATAGAAACACACATATATATATATATA [CACACA_site3863],10.1 ± 0.61
10,TAGGGTAGTTATAATTGTACTTTTCTCCAAAAAAAA [XGTACX_site7321],8.32 ± 0.52
11,AAAAATAAAAAATATAAAAATATAAAAATATAAAAA [XGTACX_negctrl_site51],8.32 ± 0.38
12,TCTTTTTCATCTTTCAACAAAAAATAATATATGTGT [CACACA_negctrl_site866],8.48 ± 0.52
13,TAAATTTGTGTTATTAAAAAAATGGTTTAAAAATGT [XGTACX_negctrl_site352],8.41 ± 0.34
14,AAATATACAATATTCACACAAAAAAATACATTACAA [CACACA_site5004],8.6 ± 0.52
15,ATATATTTATATTGTACACACATTTATGCATATATA [CACACA_site7502],8.79 ± 0.35
16,TGTTTTTATAAAATAAATAAATATATATATATATAT [CACACA_negctrl_site502],10.1 ± 0.26
17,TTTCTTACAAAAGCTAGAGTTTTTTTTTTTTTTTTT [XGTACX_negctrl_site341],8.5 ± 0.24
18,TTAGTCCATATTTTTGCACACCATTTTTTTTTTTTT [CACACA_site3927],8.9 ± 0.41
19,AGAATAAATATGCACACATGCATATATTTTTACACT [TGCATGCA_site893],8.84 ± 0.27
20,ATCCTTAATATGAACACACAAATATATTGCACATAT [CACACA_site6230],8.88 ± 0.13
21,ATATGCATAAAAAGAGGTACACATAAAATATATATA [XGTACX_site5864],8.98 ± 0.35
22,TATACACATATATAAAGTACATATATGTGTAAAAAA [XGTACX_site8582],8.44 ± 0.35
